The target of experiment [1] is E. coli DNA gyrase (Escherichia coli (strain K12), UniProt P0AES4+P0AES6). Nature of the experiment: biochemical. The method, then: E. coli gyrase supercoiling and its inhibition was assayed using a kit procured from Inpiralis (K0001) and the protocol (PMID: 2172086) was adapted with necessary modifications. The compounds to be tested were incubated for 10 minutes with 2.5 nM of E. coli DNA gyrase in a 30 μl reaction volume and 3.2% DMSO. The reactions were then started with the addition of 60 ng relaxed pBR322 plasmid DNA and continued for 45 min at 37° C. The reaction mixture contained 35 mM Tris-HCl (pH 7.5), 24 mM KCl, 1.8 mM spermidine, 4 mM MgCl2, 2 mM DTT, 6.5% (w/v) glycerol, 0.1 mg/mL BSA, and 1 mM ATP. The reaction was then stopped by addition of 0.75 μL of Proteinase K (20 mg/mL) and 3 μL of 2% SDS and further incubated at 37° C. for 30 min. This was followed by the addition of 4 μL of STEB (40% (w/v) sucrose, 100 mM Tris-HCl (pH 8), 1 mM EDTA, 0.5 mg/ml Bromophenol Blue), and the supercoiled/relaxed forms of plasmid DNA were separated by agarose gel electrophoresis. The 1% agarose gels were run for 3 h at 4V/cm in 1×TAE (40 mM Tris, 20 mM Acetic acid, 1 mM EDTA). To visualize the DNA, the gels were stained for 10 min with 0.7 μg/mL ethidium bromide and excess dye was removed by several washes with water. IC50 values were determined by quantifying the supercoiled and relaxed DNA in each of the reactions from a gel image by a densitometric method using the Quantity One Software (Bio-rad).

In experiment [2] the target is E. coli topoisomerase IV (Escherichia coli (strain K12), UniProt P0AFI2+P20083). The experiment is described as follows: biochemical. The protocol: E. coli topoisomerase IV decatenation activity and its inhibition was assayed using a kit procured from Inpiralis (D4002) and the kit protocol was adapted with necessary modifications similar to the gyrase supercoiling assays. The compounds 1, 2, 3 and 4 were incubated individually for 10 minutes with 5 nM of E. coli topoisomerase IV in a 30 μl reaction volume and 3.2% DMSO. The reactions were started with the addition of 60 ng of kDNA and continued for 40 min at 37° C. The final reaction mixture contained 40 mM Tris-HCl (pH 7.6), 100 mM potassium glutamate, 10 mM magnesium acetate, 10 mM DTT, 1 mM ATP, and 50 μg/ml albumin. The reactions were stopped by addition of 0.75 μL of Proteinase K (20 mg/mL) and 3 μL of 2% SDS and further incubated at 37° C. for 30 min. This was followed by the addition of 4 μL of STEB (40% (w/v) sucrose, 100 mM Tris-HCl pH8, 1 mM EDTA, 0.5 mg/ml Bromophenol Blue) and the kDNA/minicircles forms were separated by agarose gel electrophoresis. The 1% agarose gels were run for 3 h at 4V/cm in 1×TAE (40 mM Tris, 20 mM Acetic acid, 1 mM EDTA). To visualize the DNA, the gels were stained for 10 min with 0.7 μg/mL ethidium bromide and excess dye was removed by several washes with water. IC50 values were determined by quantifying the Kinetoplast DNA band inside the gel well and decatenated minicircles that migrate into the gel in each of the reactions from a gel image by a densitometric method using the Quantity One Software (Bio-rad).

[3] abbreviates: read-out: E. coli DNA Gyrase IC50, gel based supercoiling assay.
Where [4] appears, read: read-out: E. coli Topo IV IC50, gel based decatenation assay.

Our source for the IC50 values is US20250136618A1, “ANTIBIOTIC PYRAZINOTHIAZINE DERIVATIVES AND PROCESS OF PREPARATION THEREOF” (Bugworks Research India PVT Ltd, priority 2021, published 2025).

Read-outs that look alike come from different tables or passages of the source.

A word on the IC50: it is the concentration that inhibits the measured activity by half. Turning to `Cn1c(=O)ccc2ncc(OCCNC[C@H]3CN(c4cnc5c(n4)NC(=O)CS5)C(=O)O3)nc21` [Compound 2, (S)-5-(((2-((5-Methyl-6-oxo-5,6-dihydropyrido[2,3-b]pyrazin-3-yl)oxy)ethyl)amino)methyl)-3-(3-oxo-3,4-dihydro-2H-pyrazino[2,3-b][1,4]thiazin-6-yl)oxazolidin-2-one, reference compound], the half-inhibitory concentration (IC50) in experiment [1] was 13 nM; in experiment [2], 45 nM.

As for `Cn1c(=O)cnc2ccc(OCCNC[C@H]3CN(c4cnc5c(n4)NC(=O)CS5)C(=O)O3)nc21` [Compound 1, (S)-5-(((2-((4-Methyl-3-oxo-3,4-dihydropyrido[2,3-b]pyrazin-6-yl)oxy)ethyl)amino)methyl)-3-(3-oxo-3,4-dihydro-2H-pyrazino[2,3-b][1,4]thiazin-6-yl)oxazolidin-2-one, reference compound], the IC50 was determined as 25 nM in experiment [1] (setting [3]) and 50 nM in experiment [2] (setting [4]). On the same counts, the results for `CN1C(=O)CNc2ccc(OCCNC[C@@H]3CN(c4cnc5c(n4)NC(=O)CS5)C(=O)O3)nc21` [Compound 5, (R)-5-(((2-((4-methyl-3-oxo-1,2,3,4-tetrahydropyrido[2,3-b]pyrazin-6-yl)oxy)ethyl)amino)methyl)-3-(3-oxo-3,4-dihydro-2H-pyrazino[2,3-b][1,4]thiazin-6-yl)oxazolidin-2-one] are 320 nM and 110 nM. In the case of `CN1C(=O)CNc2cc(F)c(OCCNC[C@@H]3CN(c4cnc5c(n4)NC(=O)CS5)C(=O)O3)nc21` [Compound 7, (R)-5-(((2-((7-fluoro-4-methyl-3-oxo-1,2,3,4-tetrahydropyrido[2,3-b]pyrazin-6-yl)oxy)ethyl)amino)methyl)-3-(3-oxo-3,4-dihydro-2H-pyrazino[2,3-b][1,4]thiazin-6-yl)oxazolidin-2-one], the IC50 in experiment [1] (setting [3]) was 67 nM. As for `Cn1c(=O)ccc2ncc(OCCNC[C@@H]3CN(c4cnc5c(n4)NC(=O)CS5)C(=O)O3)nc21` [Compound 4, (R)-5-(((2-((5-methyl-6-oxo-5,6-dihydropyrido[2,3-b]pyrazin-3-yl)oxy)ethyl)amino)methyl)-3-(3-oxo-3,4-dihydro-2H-pyrazino[2,3-b][1,4]thiazin-6-yl)oxazolidin-2-one], the IC50 in experiment [1] came to 25 nM; in experiment [2], 44 nM. As for `CN1C(=O)CNc2ccc(OCCNC[C@H]3CN(c4cnc5c(n4)NC(=O)CS5)C(=O)O3)nc21` [Compound 6, (S)-5-(((2-((4-methyl-3-oxo-1,2,3,4-tetrahydropyrido[2,3-b]pyrazin-6-yl)oxy)ethyl)amino)methyl)-3-(3-oxo-3,4-dihydro-2H-pyrazino[2,3-b][1,4]thiazin-6-yl)oxazolidin-2-one], the IC50 in experiment [1] (setting [3]) amounted to 120 nM; in experiment [2] (setting [4]), 130 nM.

In the case of `Cn1c(=O)cnc2ccc(OCCNC[C@@H]3CN(c4cnc5c(n4)NC(=O)CS5)C(=O)O3)nc21` [Compound 3, (R)-5-(((2-((4-methyl-3-oxo-3,4-dihydropyrido[2,3-b]pyrazin-6-yl)oxy)ethyl)amino)methyl)-3-(3-oxo-3,4-dihydro-2H-pyrazino[2,3-b][1,4]thiazin-6-yl)oxazolidin-2-one], the IC50 in experiment [1] (setting [3]) was 30 nM; in experiment [2] (setting [4]) it was 50 nM.

Take `[2H]C([2H])([2H])N1C(=O)CNc2ccc(OCCNCC3CN(c4cnc5c(n4)NC(=O)CS5)C(=O)O3)nc21` (stereo in doubt) [Compound 9, (R)-5-(((2-((4-(methyl-d3)-3-oxo-1,2,3,4-tetrahydropyrido[2,3-b]pyrazin-6-yl)oxy)ethyl)amino)methyl)-3-(3-oxo-3,4-dihydro-2H-pyrazino[2,3-b][1,4]thiazin-6-yl) oxazolidin-2-one]: the values for the IC50 in experiment [1] (setting [3]) and in experiment [2] (setting [4]) were 170 nM and 91 nM, respectively.

As for “(S)-5-(((2-((4-Methyl-d3)-3-oxo-1,2,3,4-tetrahydropyrido[2,3-b]pyrazin-6-yl)oxy)ethyl)amino)methyl)-3-(3-oxo-3,4-dihydro-2H-pyrazino[2,3-b][1,4]thiazin-6-yl)oxazolidin-2-one [Compound 10]”, the values for the IC50 in experiment [1] (read-out: E. coli DNA Gyrase IC50) and in experiment [2] (read-out: E. coli Topo IV IC50) were 70 nM and 78 nM, respectively. Turning to `CN1C(=O)CNc2cc(F)c(OCCNC[C@H]3CN(c4cnc5c(n4)NC(=O)CS5)C(=O)O3)nc21` [Compound 8, (S)-5-(((2-((7-fluoro-4-methyl-3-oxo-1,2,3,4-tetrahydropyrido [2,3-b]pyrazin-6-yl)oxy)ethyl)amino)methyl)-3-(3-oxo-3,4-dihydro-2H-pyrazino[2,3-b][1,4]thiazin-6-yl)oxazolidin-2-one], the IC50 in experiment [1] (setting [3]) was determined as 95 nM.
